The whole screen tested about 110,000 compounds, of which about 230 (0.21%) showed an effect of 50% or more. The list shows a part of the results.
Biological target: DPAP1 (Plasmodium falciparum, UniProt Q8IIJ9)
Assay: primary screen, percent inhibition; read by cleavage of a fluorogenic dipeptide substrate; higher = more effect of the substance
Design: species or system P. falciparum D10 trophozoite lysates; single well
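Note: 30 min substrate incubation versus DMSO and 10 µM JCP410 controls.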

Sequence of DPAP1 (Q8IIJ9 whole entry, looked up): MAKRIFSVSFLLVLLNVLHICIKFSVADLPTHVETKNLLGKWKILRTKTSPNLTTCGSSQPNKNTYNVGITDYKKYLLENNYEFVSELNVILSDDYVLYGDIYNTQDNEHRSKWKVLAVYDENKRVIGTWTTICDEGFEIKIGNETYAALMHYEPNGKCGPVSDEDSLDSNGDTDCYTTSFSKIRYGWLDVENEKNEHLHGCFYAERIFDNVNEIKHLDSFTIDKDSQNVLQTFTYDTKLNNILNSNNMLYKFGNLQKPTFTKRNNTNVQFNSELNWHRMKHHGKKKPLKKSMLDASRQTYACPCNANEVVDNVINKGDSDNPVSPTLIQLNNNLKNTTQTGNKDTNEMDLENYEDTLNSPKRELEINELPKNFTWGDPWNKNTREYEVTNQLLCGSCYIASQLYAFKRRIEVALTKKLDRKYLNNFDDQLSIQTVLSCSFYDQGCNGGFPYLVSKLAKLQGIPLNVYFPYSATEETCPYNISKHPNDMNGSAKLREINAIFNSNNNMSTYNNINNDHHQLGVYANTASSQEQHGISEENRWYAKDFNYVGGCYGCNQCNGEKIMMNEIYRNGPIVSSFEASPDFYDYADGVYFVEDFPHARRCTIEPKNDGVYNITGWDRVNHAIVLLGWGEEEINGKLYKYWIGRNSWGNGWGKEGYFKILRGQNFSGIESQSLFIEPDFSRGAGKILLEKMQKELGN

| SMILES | % Inhibition @ 10 uM [%] |
| --- | --- |
| C#CC(CCCN(CC)CC)(OC)c1ccccc1 (stereo not shown) | 1.24 |
| CCNc1nc2c(O)nsc2c2c1C(c1cccnc1)C(C#N)=C(N)O2 (stereo not shown) | 1.76 |
| CS(=O)(=O)C1=NSC2=NC(=O)/C(=C\c3cccn3-c3ccccc3F)C(=N)N21 | 3.53 |
| CC1=C(C(=O)Nc2ccc(C)cc2)C(c2ccccc2)NC(=O)N1C (stereo not shown) | 2.3 |
| CCC(C)NC(=O)c1ccc(Cl)cc1Cl (stereo not shown) | -3.82 |
| CCOc1ccc(C(=O)N2CCCCC2C)cc1 (stereo not shown) | 5.82 |
| Cc1nc2nc(N3C(=O)c4ccccc4C3=O)nn2c(O)c1C | 2.05 |
| CC1NC2(C(=O)N(C/C=C\c3ccccc3)c3ccccc32)C2C(=O)N(c3ccccc3)C(=O)C12 (stereo not shown) | -5.27 |
| COc1ccc(N(CC(=O)Nc2ccc(Br)cc2)S(C)(=O)=O)cc1OC | -5.13 |
| COc1ccc2oc(=O)cc(CN3CCN(CCO)CC3)c2c1 | 0.00706 |
| COc1ccc(-n2c(SCC(N)=O)nnc2-c2ccc(OC)c(OC)c2)cc1 | 0.44 |
| O=C(Cc1ccccc1)Nc1ccc(-c2nc(O)c3ccccc3n2)cc1 | 3.21 |
| O=C1C(=Cc2ccc(CCCCc3ccccc3)cc2)C(=O)c2ccccc21 | -0.771 |
| O=C(Cn1cc(C(=O)c2ccco2)c2ccccc21)NCCc1ccccc1 | -1.33 |
| CCN1C(=O)/C(=C\c2ccc(C)cc2)N=C1SCC(=O)NCC1CCCCC1 | -0.68 |
| COc1cc(OC)cc(-c2cc3nc(C)c(CCC(=O)O)c(C)n3n2)c1 | 2.39 |
| COc1ccc(CN2CCCC(O)C2)cc1OC (stereo not shown) | 0.605 |
| CCCCCNC(=O)c1c(-c2ccccc2)noc1C | 4.33 |
| CC(C)CCn1c(=O)c2ccccc2n2c(CCC(=O)NCCCN3CCCC3=O)nnc12 | 3.54 |
| Cc1c(NC(=O)c2cc3cc(Br)ccc3oc2=O)c(=O)n(-c2ccccc2)n1C | -3.26 |
| O=C(C1=C(N2CCCCC2)c2ccccc2S(=O)(=O)N1)c1ccccc1 | 2.01 |
| CCCc1cc(O)n2nc(C)nc2n1 | -2.91 |
| Cc1ccc(C)c(OCC(=O)N2CCCc3ccccc32)c1 | -3.03 |
| N#CC1=C(N)Oc2[nH]nc(-c3ccc(F)cc3)c2C1c1ccc(N2CCOCC2)cc1 (stereo not shown) | 2.38 |
| COc1cc(NC(=O)c2cc(C)on2)cc(OC)c1 | 3.04 |
| c1nc2sc3c(c2c2nnnn12)CCCC3 | -2.03 |
| CCOC(=O)N1CCN(C2CCC(C)CC2)CC1 (stereo not shown) | -1.81 |
| Cn1c(=O)c2c(O)c(Sc3ccc(Cl)cc3)c(=O)n(C)c2n(C)c1=O | -2.24 |
